This note sets out measurements from ChEMBL document CHEMBL5606458, “ASAP - ZIKV NS2B-NS3 protease fluorescence single point” (2024).

The campaign covered roughly 2,700 compounds. About 160 (5.9%) showed an effect of 50% or more. This is one part of the list.

In this experiment the target is Nonstructural protein 3 (Zika virus) (UniProt A0A024AXB9).
Where [1] appears, read: PRVABC59, Concentration 15.0 uM, Number of replicates 1.0.
Where [2] appears, read: PRVABC59, Concentration 10.0 uM, Number of replicates 1.0.
Setting [3] is: PRVABC59, Concentration 50.0 uM, Number of replicates 1.0.

Chain of UniProt A0A024AXB9 (A0A024AXB9 as listed by the source): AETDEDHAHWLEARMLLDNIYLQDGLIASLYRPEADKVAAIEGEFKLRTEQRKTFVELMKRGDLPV

The inhibition is the relative decrease from the control value, in per cent. In the case of `O=C(Nc1c(F)cc(F)cc1[N+](=O)[O-])c1cc(Cl)ccc1NS(=O)(=O)c1ccc(Oc2ccccc2Cl)cc1`, the inhibition under setting [1] was 25.4%. In the case of `Cc1cc(CO)c2cccc(Cc3ccccc3C(=O)N3CCC(CN)CC3)c2n1`, the inhibition by setting is: (PRVABC59, Concentration 49.95 uM, Number of replicates 2.0, Standard deviation 5.668177927575499 %) 56.2%; (PRVABC59, Concentration 99.9 uM, Number of replicates 2.0, Standard deviation 1.410491152712613 %) 37.7%. As to `NCc1cccc(NC(=O)[C@@H](Cc2cccc(O)c2)NC(=O)OCc2ccccc2)c1`, the inhibition reads like this: (PRVABC59, Concentration 49.5 uM, Number of replicates 2.0, Standard deviation 0.7577896519997772 %) 0.191%; (PRVABC59, Concentration 99.01 uM, Number of replicates 2.0, Standard deviation 1.3701999456479566 %) 3.77%; (PRVABC59, Concentration 198.0 uM, Number of replicates 2.0, Standard deviation 0.9267930143647316 %) 15.2%. `COc1cc(Cc2ccc(S(=O)(=O)NCCO)cc2)nc(N2CCNCC2)n1`: the inhibition runs as follows: (PRVABC59, Concentration 49.5 uM, Number of replicates 2.0, Standard deviation 0.7839568389991296 %) -2.58%; (PRVABC59, Concentration 99.01 uM, Number of replicates 2.0, Standard deviation 1.7255130936071057 %) -0.643%; (PRVABC59, Concentration 198.0 uM, Number of replicates 2.0, Standard deviation 0.6728289178800314 %) 3.38%. Take `N#Cc1ccc(Cl)c(NC(=O)c2cc(Cl)ccc2NS(=O)(=O)c2ccc(Oc3ccccc3Cl)cc2)c1`: the inhibition under setting [1] came to 32.9%.

Take `O=Cc1ccc(N2CCC(C(=O)NCc3ccc(OC(F)(F)F)cc3)CC2)cc1`: the inhibition under setting [2] is 12.6%. As to `O=C1NCCN(C(=O)c2cc(Cl)ccc2NS(=O)(=O)c2ccc(Oc3ccccc3Cl)cc2)[C@H]1c1ccccc1`, under setting [1], the inhibition is -8.05%.

`O=C(c1c[nH]c2ccccc12)N1CCC(c2c[nH]c3cccnc23)CC1`: the inhibition was 1.92% (PRVABC59, Concentration 49.5 uM, Number of replicates 2.0, Standard deviation 1.2524802574217546 %); 7.55% (PRVABC59, Concentration 99.01 uM, Number of replicates 2.0, Standard deviation 1.5169790429854497 %); 15.2% (PRVABC59, Concentration 198.0 uM, Number of replicates 2.0, Standard deviation 1.2965638379154212 %). Take `CN(Cc1ccccc1NC(=O)C1CCN(c2ccc(C=O)cc2)CC1)C1CCCCC1`: under setting [3], the inhibition was 22.9%.

On to `CCS(=O)(=O)c1ccccc1C(=O)Nc1ccncc1C`, for which the inhibition was -1.25% (PRVABC59, Concentration 49.5 uM, Number of replicates 2.0, Standard deviation 0.06053560280989412 %); -0.715% (PRVABC59, Concentration 99.01 uM, Number of replicates 2.0, Standard deviation 0.855906735616441 %); 1.36% (PRVABC59, Concentration 198.0 uM, Number of replicates 2.0, Standard deviation 0.507826787651883 %). On to `O=Cc1ccc(N2CCC(C(=O)NCc3c(F)cc(F)c(F)c3F)CC2)cc1`, for which the inhibition under setting [2] was determined as 22.5%. Regarding `O=C(NCc1ccsc1Br)c1cc(Cl)ccc1NS(=O)(=O)c1ccc(Oc2ccccc2Cl)cc1`, under setting [1], the inhibition came to 31.5%.

Regarding `O=C(Nc1ccc(I)cn1)c1cc(Cl)ccc1NS(=O)(=O)c1ccc(Oc2ccccc2Cl)cc1`, the inhibition under setting [1] was found to be 23.3%.

As for `Cc1nc([C@H]2CCCNC2)[nH]c1C(=O)N1CCN([C@H](C)C(=O)NC2CCCC2)CC1`, the inhibition (PRVABC59, Concentration 49.5 uM, Number of replicates 2.0, Standard deviation 0.07150541595291557 %) is -1.61%; the inhibition (PRVABC59, Concentration 99.01 uM, Number of replicates 2.0, Standard deviation 1.2278500184736247 %) was -1.24%; the inhibition (PRVABC59, Concentration 198.0 uM, Number of replicates 2.0, Standard deviation 2.2697859891871475 %) was 0.669%.

As to `O=Cc1ccc(N2CCC(C(=O)N3CCC(C(=O)NCCO)CC3)CC2)cc1`, under setting [3], the inhibition came out at 24.8%. As for `O=C(c1cccn2ccnc12)N1CC[C@H](c2c[nH]c3ccccc23)C1`, the inhibition came out at 3.2% (PRVABC59, Concentration 49.5 uM, Number of replicates 2.0, Standard deviation 4.127142833232607 %); 5.35% (PRVABC59, Concentration 99.01 uM, Number of replicates 2.0, Standard deviation 3.445762804478474 %); 7.26% (PRVABC59, Concentration 198.0 uM, Number of replicates 2.0, Standard deviation 0.6813803448554978 %). Turning to `O=C(Nc1cc(Cl)cc(Cl)c1O)c1cc(Cl)ccc1NS(=O)(=O)c1ccc(Oc2ccccc2Cl)cc1`, under setting [1], the inhibition is 74.3%.

For `CNC(=O)[C@H]1CCN(S(=O)(=O)c2ccc(Oc3ccccc3Cl)cc2)C1`, the inhibition by setting is: (PRVABC59, Concentration 49.5 uM, Number of replicates 2.0, Standard deviation 2.3503648629811855 %) 6.33%; (PRVABC59, Concentration 99.01 uM, Number of replicates 2.0, Standard deviation 2.692773952478603 %) 8.32%; (PRVABC59, Concentration 198.0 uM, Number of replicates 2.0, Standard deviation 0.3043636351088153 %) 5.71%.

Take `Cc1nc(Br)ccc1NC(=O)c1cc(Cl)ccc1NS(=O)(=O)c1ccc(Oc2ccccc2Cl)cc1`: under setting [1], the inhibition was determined as 21.8%. With `Cc1ccc(CNC(=O)c2cc(Cl)ccc2NS(=O)(=O)c2ccc(Oc3ccccc3Cl)cc2)cc1Cl`, the inhibition under setting [1] turned out to be 23%. On to `CC(C)(CO)NC(=O)c1cc(Cl)cc(NC(=O)c2c[nH]c(=O)o2)c1`, for which the inhibition by setting is: (PRVABC59, Concentration 49.5 uM, Number of replicates 2.0, Standard deviation 1.797395007357769 %) -3.13%; (PRVABC59, Concentration 99.01 uM, Number of replicates 2.0, Standard deviation 0.09962469746132278 %) -1.84%; (PRVABC59, Concentration 198.0 uM, Number of replicates 2.0, Standard deviation 1.305498169009609 %) 1.83%. As to `CCCc1nn(C)c(C(N)=O)c1Nc1cccc2c(CO)cc(C)nc12`, the inhibition runs as follows: (PRVABC59, Concentration 49.95 uM, Number of replicates 2.0, Standard deviation 0.2471963241382148 %) -9.7%; (PRVABC59, Concentration 99.9 uM, Number of replicates 2.0, Standard deviation 0.6961850154508284 %) -9.45%. Take `O=C(Nc1nc2ccccc2[nH]1)[C@@]1(c2ccc(F)cc2)CCCNC1`: the inhibition (PRVABC59, Concentration 49.5 uM, Number of replicates 2.0, Standard deviation 0.5142138475157695 %) was -1.33%; the inhibition (PRVABC59, Concentration 99.01 uM, Number of replicates 2.0, Standard deviation 0.5894647011135223 %) was -0.336%; the inhibition (PRVABC59, Concentration 198.0 uM, Number of replicates 2.0, Standard deviation 0.8632939823423394 %) came to 2.05%. As to `O=C(NC12C[C@@H]3C[C@@H](CC(O)(C3)C1)C2)c1cc(Cl)ccc1NS(=O)(=O)c1ccc(Oc2ccccc2Cl)cc1`, under setting [1], the inhibition was 24.8%. For `COc1cc(C(=O)NCc2cccnc2)nc(N2CCNCC2)n1`, the inhibition is, setting by setting: (PRVABC59, Concentration 49.5 uM, Number of replicates 2.0, Standard deviation 0.6669275161515361 %) -2.53%; (PRVABC59, Concentration 99.01 uM, Number of replicates 2.0, Standard deviation 1.9680723371784548 %) -1.69%; (PRVABC59, Concentration 198.0 uM, Number of replicates 2.0, Standard deviation 1.9753413198474317 %) -2.37%. With `CC(C)Nc1nc2ccc(C(=O)Nc3cnn(C)c3)cc2[nH]1`, the inhibition reads like this: (PRVABC59, Concentration 49.5 uM, Number of replicates 2.0, Standard deviation 3.535335309982554 %) 0.42%; (PRVABC59, Concentration 99.01 uM, Number of replicates 2.0, Standard deviation 3.632711052924425 %) 2.59%; (PRVABC59, Concentration 198.0 uM, Number of replicates 2.0, Standard deviation 2.7285080736948673 %) 10.8%.

As to `Cc1ccc(NC(=O)c2cc(Cl)ccc2NS(=O)(=O)c2ccc(Oc3ccccc3Cl)cc2)cc1I`, the inhibition under setting [1] came out at 40.6%. In the case of `NCc1cccc(NC(=O)C2CCN(C(=O)OCc3ccccc3)CC2)c1`, the inhibition was 0.16% (PRVABC59, Concentration 49.5 uM, Number of replicates 2.0, Standard deviation 1.063181986313622 %); 3.48% (PRVABC59, Concentration 99.01 uM, Number of replicates 2.0, Standard deviation 0.3526652722014522 %); 11.4% (PRVABC59, Concentration 198.0 uM, Number of replicates 2.0, Standard deviation 0.2048572859981111 %). Turning to `O=C(NCc1ccc(I)cc1)c1cc(Cl)ccc1NS(=O)(=O)c1ccc(Oc2ccccc2Cl)cc1`, the inhibition under setting [1] came to 31.2%. For `Cc1cnccc1NC(=O)c1ccccc1-n1cccn1`, the inhibition is -1.08% (PRVABC59, Concentration 49.5 uM, Number of replicates 2.0, Standard deviation 1.6031912013311809 %); -1.12% (PRVABC59, Concentration 99.01 uM, Number of replicates 2.0, Standard deviation 1.0324715376321894 %); -1.88% (PRVABC59, Concentration 198.0 uM, Number of replicates 2.0, Standard deviation 2.152117382941341 %).

In the case of `O=C(Nc1ncnc(Cl)c1Cl)c1cc(Cl)ccc1NS(=O)(=O)c1ccc(Oc2ccccc2Cl)cc1`, the inhibition under setting [1] was determined as 21.6%.

In the case of `Cc1cc(CO)c2cccc(NC(=O)CNC3CC3)c2n1`, the inhibition is, setting by setting: (PRVABC59, Concentration 49.95 uM, Number of replicates 2.0, Standard deviation 1.7513317050958486 %) 17.8%; (PRVABC59, Concentration 99.9 uM, Number of replicates 2.0, Standard deviation 1.7111876748261923 %) 28.9%. `Cc1cc(CO)c2cccc(NC(=O)[C@H]3CCNC3)c2n1`: the inhibition is, setting by setting: (PRVABC59, Concentration 49.95 uM, Number of replicates 2.0, Standard deviation 1.562551081581127 %) -4.16%; (PRVABC59, Concentration 99.9 uM, Number of replicates 2.0, Standard deviation 2.5850257028478962 %) 4.64%.

As for `Nc1ccc(-c2ccc3c(c2)OB(O)CC3)cn1`, the inhibition by setting is: (PRVABC59, Concentration 49.5 uM, Number of replicates 2.0, Standard deviation 0.35544755425905034 %) 1.29%; (PRVABC59, Concentration 99.01 uM, Number of replicates 2.0, Standard deviation 1.2113279059483235 %) 2.62%; (PRVABC59, Concentration 198.0 uM, Number of replicates 2.0, Standard deviation 0.018707805942227557 %) 3.08%; (PRVABC59, Concentration 500.0 uM, Number of replicates 2.0, Standard deviation 2.4968029080205287 %) 9.35%. `O=C(c1cc(Cl)ccc1NS(=O)(=O)c1ccc(Oc2ccccc2Cl)cc1)N1CCOCC1`: under setting [1], the inhibition was 17.6%.

In the case of `Cc1nc(CNC(=O)c2[nH]c([C@H]3CCCNC3)nc2C)c[nH]1`, the inhibition is, setting by setting: (PRVABC59, Concentration 49.5 uM, Number of replicates 2.0, Standard deviation 2.392781282735155 %) 2.71%; (PRVABC59, Concentration 99.01 uM, Number of replicates 2.0, Standard deviation 2.3433276879790186 %) 5.99%; (PRVABC59, Concentration 198.0 uM, Number of replicates 2.0, Standard deviation 2.4308218480893298 %) 12.6%.

Take `O=C(Nc1cc(Cl)ccc1Br)c1cc(Cl)ccc1NS(=O)(=O)c1ccc(Oc2ccccc2Cl)cc1`: under setting [1], the inhibition came out at 24.1%.
